Test results reported in PubChem BioAssay AID2676 (National Center for Advancing Translational Sciences (NCATS), 2010).
Screen size: about 370,000 compounds; about 1,100 (0.3%) were called active. The inconclusive results got no clear call from the source; some entries with a clear call stand among them for comparison. Calls follow the shape of the dose curve; as a rule, active = well fitted activation curve with a large enough effect; inconclusive = small, poorly fitted or top-dose-only effect; inactive = flat fitted curve, though single readings scatter. A potency beside an inconclusive call is a rough fit, not a confirmed value.

What follows are compounds tested against Relaxin receptor 1 (Homo sapiens) (UniProt Q9HBX9) (assay: qHTS Assay for Agonists of the Relaxin Receptor RXFP1). Settings: HEK293T-RXFP1 cAMP TR-FRET, 30 min; series mostly up to 57.5 µM; activation: at the top concentration.
UniProt Q9HBX9, sequence (Q9HBX9 whole entry, looked up): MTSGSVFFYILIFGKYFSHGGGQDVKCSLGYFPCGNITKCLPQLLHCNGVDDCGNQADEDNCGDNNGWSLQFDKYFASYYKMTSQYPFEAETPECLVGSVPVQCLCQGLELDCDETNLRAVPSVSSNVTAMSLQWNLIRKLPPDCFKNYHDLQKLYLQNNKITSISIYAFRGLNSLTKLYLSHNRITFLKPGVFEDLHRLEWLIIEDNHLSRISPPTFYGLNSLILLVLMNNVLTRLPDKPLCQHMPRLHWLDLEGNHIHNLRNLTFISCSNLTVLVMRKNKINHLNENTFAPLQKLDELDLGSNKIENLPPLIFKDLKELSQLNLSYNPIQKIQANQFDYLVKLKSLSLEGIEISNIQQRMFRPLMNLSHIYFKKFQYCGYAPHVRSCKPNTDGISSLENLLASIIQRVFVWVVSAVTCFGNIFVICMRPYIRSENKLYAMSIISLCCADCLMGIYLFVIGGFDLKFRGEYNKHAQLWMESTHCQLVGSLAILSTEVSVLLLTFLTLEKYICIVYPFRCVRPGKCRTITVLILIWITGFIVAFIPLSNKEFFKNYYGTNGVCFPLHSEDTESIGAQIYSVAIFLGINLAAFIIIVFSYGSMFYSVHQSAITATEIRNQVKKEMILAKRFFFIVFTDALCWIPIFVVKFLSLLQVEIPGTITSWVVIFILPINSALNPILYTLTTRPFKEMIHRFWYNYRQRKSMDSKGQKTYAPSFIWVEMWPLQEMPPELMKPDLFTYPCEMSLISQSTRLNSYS
In short: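 Agonist response is measured as cAMP accumulation in an RXFP1-transfected HEK293T line under PDE4 inhibition. Values are scaled between buffer-only and 29 nM porcine relaxin, and EC50s come from standard Hill equation fits.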
% is scaled to controls: 0 for no effect and ±100 for the full control effect; potency is read from the fitted curve at half-maximal effect; tags tell the direction and shape of the fitted curve.
Also: nearly all actives have a fitted effect of over 60% in size.

Which “activation” value does the source give for `CC1CCCCC12NC(=O)N(CC(=O)Nc1sc3c(c1C(N)=O)CCC3)C2=O` (centres undefined) here?
Its value is inactive: -0.538%.

`Cc1cc(=S)c2ccccc2[nH]1` was tested. Which Potency did it give?
The Potency was inconclusive: 35.5 µM [activator, single point].

`COc1ccc(-c2cc(C(=O)Nc3c(C(=O)c4ccc(C)c(F)c4)oc4ccccc34)no2)cc1` was tested. Which Potency did it give?
The Potency was inconclusive: 39.8 µM [activator, single point].

With `COc1ccc2cc(C(=O)C3CCCN(C(=O)c4cccnc4)C3)ccc2c1` (centres undefined) as the compound, how does the Potency read?
Its Potency is inconclusive: 22.4 µM [activator, partial curve].

For `CCn1c(=O)c2cc(C(=O)NCCc3ccc(OC)c(OC)c3)sc2c2ccccc21`, which Potency is on record?
The Potency was inconclusive: 39.8 µM [activator, single point].

How did the “activation” value turn out when `CCOC(=O)N1CCN(C(=O)Cc2ccc(-n3c(=O)[nH]c4ccccc4c3=O)cc2)CC1` was run?
The value was inactive: 2.33%.

How did the Potency turn out when `COc1ccc(-c2cc(C(F)(F)F)n3nc(C(=O)Nc4cccc(Cl)c4Cl)cc3n2)cc1OC` was run?
The Potency was inconclusive: 25.1 µM [activator, single point].

`COc1ccc(OC)c(-c2cc(C(=O)NCc3ccc(Cl)cc3)no2)c1` was tested. Which Potency did it give?
The Potency was inconclusive: 35.5 µM [activator, single point].

With `Cc1ccc(-c2nn3c(C)nnc3c3ccccc23)cc1S(=O)(=O)NC(C)(C)CO` as the compound, how does the Potency read?
Its Potency is inconclusive: 17.8 µM [activator, partial curve].

With `CCc1ccc(NC(=O)c2sc3nc(C)cc(C)c3c2NC(=O)c2ccccc2)cc1` as the compound, how does the Potency read?
Its Potency is inconclusive: 20 µM [activator, partial curve].

For `Cc1ccc(C)c(NC(=O)Cn2cc(S(=O)(=O)c3ccc(F)cc3)c(=O)c3cc(F)ccc32)c1`, which Potency is on record?
Its Potency is inconclusive: 28.2 µM [activator, partial curve].

With `CSc1nnc(N2C(=O)C(O)=C(C(=O)c3ccco3)C2c2ccc(F)cc2)s1` (centres undefined) as the compound, how does the Potency read?
Its Potency is inconclusive: 25.1 µM [activator, partial curve].

With `COCCn1c(=S)[nH]c2cc(C(=O)NC(C)C)ccc2c1=O` as the compound, how does the Potency read?
The Potency was inconclusive: 35.5 µM [activator, single point].

How did the Potency turn out when `CC(C)CCn1c(=O)c2ccccc2n2c(CCC(=O)NCC3CCCO3)nnc12` (centres undefined) was run?
Its Potency is inconclusive: 20 µM [activator, partial curve].

`CC(=O)c1cccc(NC(=O)CCc2nnc3ccc(N4CCOCC4)nn23)c1` was tested. Which Potency did it give?
Its Potency is inconclusive: 25.1 µM [activator, partial curve].

With `COc1cccc(NC(=O)CSc2nc3scc(C)c3c(=O)[nH]2)c1` as the compound, how does the Potency read?
The Potency was inconclusive: 35.5 µM [activator, single point].

With `CCOc1ccccc1NS(=O)(=O)c1cn(C)c(=O)n(C)c1=O` as the compound, how does the Potency read?
Its Potency is inconclusive: 39.8 µM [activator, single point].

How did the Potency turn out when `Cc1ccn2c(=O)c(NC(=O)c3cccc([N+](=O)[O-])c3C)c(C)nc2c1` was run?
The Potency was inconclusive: 22.4 µM [activator, partial curve].

With `Cc1cccc(C)c1NC(=O)c1cc2sccc2n1Cc1ccc(F)cc1` as the compound, how does the Potency read?
The Potency was inconclusive: 39.8 µM [activator, single point].

Which Potency does the source give for `Cc1ccc2cc(C#N)c(SCC(=O)NNC(=O)Cc3ccccc3)nc2c1` here?
The Potency was inconclusive: 3.98 µM [activator, full curve].

How did the Potency turn out when `Cc1cc(C)nc(NS(=O)(=O)c2ccc(NC(=O)c3nn(-c4ccccc4)ccc3=O)cc2)n1` was run?
The Potency was inconclusive: 15.8 µM [activator, partial curve].

`Cc1scc(C(=O)N/N=C/c2ccc(OC(C)C)cc2)c1C` was tested. Which “activation” value did it give?
Its value is inactive: -2.91%.

With `COc1nc(N2CCCC2)nc(-n2nnc(C(C)=O)c2C)n1` as the compound, how does the Potency read?
The Potency was inconclusive: 25.1 µM [activator, partial curve].

Which “activation” value does the source give for `COc1ccc(C2Nc3ccccc3C(=O)N2Cc2ccccc2)cc1COc1ccc(Cl)cc1Cl` (centres undefined) here?
The value was inactive: 3.76%.

With `N#Cc1cc2ccccc2nc1SCC(=O)NC1CC1` as the compound, how does the Potency read?
The Potency was inconclusive: 39.8 µM [activator, single point].

Which Potency does the source give for `CSc1nnc(N2C(=O)C(O)=C(C(=O)c3ccco3)C2c2ccccc2F)s1` (centres undefined) here?
The Potency was inconclusive: 17.8 µM [activator, partial curve].

How did the “activation” value turn out when `CCOc1nc(NC(=O)NS(=O)(=O)Oc2cccc(F)c2)nc(-c2ccccc2)n1` was run?
Its value is inactive: -0.0158%.

For `O=C(O)CCc1ccc(-c2ccc(Br)cc2)o1`, which Potency is on record?
The Potency was inconclusive: 20 µM [activator, partial curve].

How did the Potency turn out when `O=C(CCN1C(=O)c2cccc3cccc(c23)C1=O)Nc1ccon1` was run?
The Potency was inconclusive: 28.2 µM [activator, single point].

`COc1ccc(N2CCN(C(c3cccs3)C(C)NS(C)(=O)=O)CC2)cc1` (centres undefined) was tested. Which Potency did it give?
The Potency was inconclusive: 39.8 µM [activator, single point].

How did the Potency turn out when `Nc1nc(-c2ccc(Cl)cc2)nnc1-c1ccc(Br)cc1` was run?
Its Potency is inconclusive: 28.2 µM [activator, single point].

How did the Potency turn out when `CC(C)Oc1ccc(C2C(C(=O)c3ccco3)=C(O)C(=O)N2Cc2cccnc2)cc1` (centres undefined) was run?
The Potency was inconclusive: 25.1 µM [activator, partial curve].

`CC(=O)c1ccc(NC2=NS(=O)(=O)c3ccccc32)cc1` was tested. Which Potency did it give?
Its Potency is inconclusive: 39.8 µM [activator, single point].

How did the Potency turn out when `Cc1cc(C)n2nc(C(=O)Nc3cccc(S(=O)(=O)N4CCCC4)c3)nc2n1` was run?
The Potency was inconclusive: 15.8 µM [activator, partial curve].

With `COc1cccc(N2CCN(C(=O)c3cccc(NC(=O)c4nsc5ccccc45)c3)CC2)c1` as the compound, how does the “activation” value read?
The value was inactive: 6.88%.

With `CC(=O)C1=C(O)C(=O)N(c2cccc(Br)c2)C1c1ccccc1Cl` (centres undefined) as the compound, how does the Potency read?
Its Potency is inconclusive: 28.2 µM [activator, partial curve].

For `CCOc1ccccc1CNC(=O)c1cc2c(=O)n(Cc3ccccc3)ccc2nc1C`, which “activation” value is on record?
Its value is inactive: -1.4%.

With `CCN(CC)c1ccc(Nc2cc3n(c(=O)n2)CCc2cc(OC)c(OC)cc2-3)cc1` as the compound, how does the “activation” value read?
The value was inactive: 0.178%.

How did the “activation” value turn out when `COc1ccc(OC)c(NC(=O)COC(=O)CNC(=O)c2ccc(OC)c(OC)c2)c1` was run?
Its value is inactive: 2.36%.

With `COC(=O)CCNC(=O)Cn1cnc2sc3c(c2c1=O)CCCC3` as the compound, how does the Potency read?
Its Potency is inconclusive: 17.8 µM [activator, partial curve].

With `CCOc1ccccc1CNC(=O)C1CCN(C2=NS(=O)(=O)C(c3ccc(C)c(C)c3)=C2C)CC1` as the compound, how does the Potency read?
Its Potency is inconclusive: 35.5 µM [activator, single point].

For `O=C(CCCn1c(=O)c2cccn2c2ccc(F)cc21)NCCc1ccccc1`, which Potency is on record?
The Potency was inconclusive: 22.4 µM [activator, single point].

Which Potency does the source give for `CCOC(=O)CSc1nc2ccc(NC(=O)c3ccc(F)cc3)cc2s1` here?
Its Potency is inconclusive: 39.8 µM [activator, single point].

Which Potency does the source give for `CCCc1cc(C(=O)OC)c(NC(=O)CCCC(=O)O)s1` here?
Its Potency is inconclusive: 35.5 µM [activator, single point].

`COc1ccccc1CNC(=O)c1ccc2c(=O)n(CCCN3CCCC3=O)c(=S)[nH]c2c1` was tested. Which “activation” value did it give?
Its value is inactive: 9.85%.

Which “activation” value does the source give for `Cc1ccc(CNC(=O)c2c(-c3ccccc3Cl)noc2C)o1` here?
Its value is inactive: 3.9%.

Which Potency does the source give for `Cc1ccc(NC(=O)Cn2c(=O)n(Cc3nc(-c4ccccc4)no3)c(=O)c3ccccc32)cc1C` here?
Its Potency is inconclusive: 31.6 µM [activator, single point].

`COc1ccc(CNC(=O)Nc2ccc3c(c2)N(C)C(=O)c2ccccc2S3)cc1OC` was tested. Which Potency did it give?
Its Potency is inconclusive: 39.8 µM [activator, single point].

How did the Potency turn out when `N#Cc1cc(Nc2c(N)nc[nH]c2=O)c([N+](=O)[O-])cc1C#N` was run?
Its Potency is inconclusive: 25.1 µM [activator, partial curve].

`Cc1ccccc1CC1S/C(=N/N=C/c2ccco2)NC1=O` (centres undefined) was tested. Which Potency did it give?
The Potency was inconclusive: 6.31 µM [activator, single point].

How did the Potency turn out when `Nc1ccc(-c2nc3ccc(N)cc3[nH]2)cc1` was run?
Its Potency is inconclusive: 31.6 µM [activator, partial curve].

Which “activation” value does the source give for `COc1ccc2cc(C(=O)NCc3ccc4c(c3)CCN4C(=O)c3ccc(F)cc3)[nH]c2c1` here?
Its value is inactive: 13.3%.

Which “activation” value does the source give for `Cn1c(O)c(N=NC(=O)CNC(=O)/C=C/c2ccccc2)c2ccccc21` here?
Its value is inactive: -0.431%.

For `CCn1c(/C=C/c2cc[n+](C)cc2)nc2ccccc21`, which Potency is on record?
Its Potency is active: 28.2 µM.

With `Cc1ccc(CCNS(=O)(=O)c2ccc3c(c2)CC(C)N3C(=O)C2CCC2)cc1` (centres undefined) as the compound, how does the “activation” value read?
The value was inactive: 0.376%.

`CCn1c(CN2CCC(C)CC2)nc2cc(NC(=O)COc3ccc(Cl)c(C)c3)ccc21` was tested. Which Potency did it give?
Its Potency is inconclusive: 25.1 µM [activator, single point].

How did the Potency turn out when `CCC(C(=O)NC1CCCC1)N(C(=O)c1snc(C(N)=O)c1N)c1ccc(OC)cc1` (centres undefined) was run?
Its Potency is inconclusive: 39.8 µM [activator, single point].

`COCCCn1c(=NC(C)=O)c(C#N)cc2c(=O)n3cccc(C)c3nc21` was tested. Which Potency did it give?
Its Potency is inconclusive: 25.1 µM [activator, partial curve].

`CCOC(=O)CSc1nc(-c2ccccc2)nc2ccccc12` was tested. Which Potency did it give?
The Potency was inconclusive: 22.4 µM [activator, single point].

For `CCOC(=O)C1CCCN(C(=O)c2cc3c(=O)n4ccccc4nc3s2)C1` (centres undefined), which Potency is on record?
The Potency was inconclusive: 28.2 µM [activator, partial curve].

With `CC(=O)Nc1ccc(S(=O)(=O)Nc2nc3ccccc3nc2-n2ccc(=NC(=O)c3ccc(F)cc3)cc2)cc1` as the compound, how does the Potency read?
Its Potency is inconclusive: 35.5 µM [activator, single point].

For `CCOC(=O)c1[nH]c2ccc(OC)cc2c1NC(=S)N1CCN(c2ccccn2)CC1`, which Potency is on record?
Its Potency is inconclusive: 39.8 µM [activator, single point].

`Cc1cc(C)n(-c2nc3ccccc3nc2Nc2ccc(Cl)c(C(=O)OC(C)C)c2)n1` was tested. Which Potency did it give?
The Potency was inconclusive: 39.8 µM [activator, single point].

How did the Potency turn out when `Cc1cc(C)cc(NC(=O)CSc2oc(-c3ccccc3)nc2S(=O)(=O)c2ccccc2)c1` was run?
Its Potency is inconclusive: 28.2 µM [activator, single point].
